# Measurements: the supplement of paper PMC5499739
# In all, about 16,000 sequences were measured (“Z-score”: median about -0.37, highest 2% from about 3.2 on). Some of the results follow.
# System: RBM10 RRM1-ZnF (GST-tagged construct)
# Assay: RNAcompete 7-mer binding Z-score; higher = stronger binding preference
# Description: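 RNAcompete: 20 pmol GST-tagged RBM10 RNA-binding constructs were incubated with a designed RNA pool of about 241,000 sequences up to 41 nt (1.5 nmol) on glutathione beads for 30 min at 4 °C and washed. Bound RNAs were identified by microarray hybridisation. Each RNA 7-mer is scored by a one-sided Z-score of its enrichment, computed over probes that contain the 7-mer within longer pool sequences.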
row,Sequence,RNAcompete 7-mer binding Z-score
1,AGCACCG,-0.201
2,UAACAUC,-0.584
3,CAUUUAA,-0.821
4,CAUUAAU,-0.668
5,CUUUAAU,-0.802
6,AGGUAAG,2.32
7,UACACCU,-0.607
8,GCAAAGC,-0.0902
9,UAGCCCG,-0.334
10,GGCAGAU,0.794
11,UAUAUUG,-0.308
12,UCAUGCA,-0.646
13,AUGGGGC,2.81
14,CUGCUUG,-0.727
15,AUCCCGG,-0.513
16,GAGGAAG,3.26
17,GAGCCGG,0.465
18,CUCGUUU,-0.896
19,AUUAAGC,-0.636
20,CGGUGUC,0.365
21,GUCAAGA,-0.0187
22,UUUGUAA,-0.496
23,GAUGACA,0.365

row,Sequence,RNAcompete 7-mer binding Z-score
1,UACCUUC,-0.896
2,GCGGACC,0.381
3,GUAGUCG,0.352
4,GGCGGCU,0.465
5,GCGCAAU,-0.47
6,AAUUGGU,1.28
7,UGGUAGG,2.98
8,GUAACGG,1.68
9,CCUGUAU,-0.85
10,ACUAUUU,-0.938
11,CCAGCAG,-0.275
12,UAUGGGG,3.4
13,AACACAG,0.0528
14,GCCGAUG,-0.123
15,UUAGGAG,2.09
16,UGUUUAA,-0.444
17,AAUAUGG,1.09
18,ACGAACU,-0.672
19,ACGCCUC,-0.678
20,UAGCGUA,-0.207
21,UUGGUGG,2.48
22,GUUGCUG,0.196
23,AAAAAUA,-0.412

row,Sequence,RNAcompete 7-mer binding Z-score
1,GUAGUGA,0.946
2,GACAUAG,0.53
3,CCGAUUC,-0.815
4,UAGACGU,-0.178
5,CAGAGUA,0.0983
6,UUACUAC,-0.707
7,AAGAACU,-0.308
8,ACGAAGA,-0.344
9,CGGCUGA,0.196
10,CGAAUCA,-0.305
11,UGAGUAA,0.287
12,AUCAUUG,-0.532
13,UCCGGUU,-0.0577
14,GACACCG,-0.451
15,AGAAGAA,1
16,AGACAAA,-0.165
17,CUGAUCA,-0.448
18,CCUGACU,-0.698
19,GAAGUCG,0.43
20,UCUCCUU,-0.655
21,UAGUCUU,-0.847
22,ACAGGGU,2.94
23,CCUCGCC,-0.441

row,Sequence,RNAcompete 7-mer binding Z-score
1,GUUCCCG,-0.555
2,CUCACCA,-0.665
3,CAAGCUU,-0.967
4,CGGGAGU,1.67
5,GAGAGAU,0.69
6,AUGGUUU,1.85
7,GUAAGCA,0.322
8,CUGCCAC,-0.688
9,UACGGAU,0.784
10,AGAAUUG,0.365
11,CUAUAAA,-0.681
12,UGCAUUU,-0.828
13,AUCUAGA,-0.548
14,UCAUGGU,0.0528
15,CCGCGGC,-0.194
16,AGAGCCA,-0.691
17,AGCCUCG,-0.62
18,UAGAUCG,-0.158
19,UUACAAA,-0.305
20,UUGCUGG,0.105
21,AUUGUCC,-0.717
22,ACUGACC,-0.73
23,ACGGCUG,0.102

row,Sequence,RNAcompete 7-mer binding Z-score
1,AGGUCAG,1.02
2,GUAUGAU,0.225
3,CAUCGCA,-0.483
4,CCAUUAA,-0.941
5,UCGUCGA,-0.36
6,GAGGAAC,1.66
7,UCUCUAA,-0.74
8,CUUCGUA,-0.678
9,GUAAAGC,0.3
10,GAAGAAU,0.43
11,GAUGCUA,-0.292
12,CUCCACG,-0.6
13,UGCGUUG,0.15
14,AUCGCGC,-0.539
15,GCGAGGC,1.16
16,GUUCAGC,-0.366
17,UCCAAAU,-0.694
18,GCAAUGU,0.166
19,GGACUUG,0.498
20,GGACGUU,0.53
21,UGAGCCC,-0.207
22,UUCAUGG,-0.035
23,CCCCUGG,0.0365

row,Sequence,RNAcompete 7-mer binding Z-score
1,GAUUGAU,0.27
2,GCAAAUG,0.202
3,GCGACAU,-0.106
4,CGGACGU,0.16
5,GGCUUCA,-0.444
6,UCAGCAC,-0.435
7,CCCCAAA,-0.6
8,CCGCGUC,-0.594
9,GUGGCCC,0.345
10,CUGGAAG,0.794
11,AAGGUAC,1.45
12,UCCUGAG,-0.412
13,CGUCUAC,-0.678
14,GCUCACU,-0.844
15,GAGUAAU,0.056
16,CUAUUCG,-0.893
17,GAAGUAG,1.17
18,UGAUUCA,-0.604
19,CCUUAGU,-0.776
20,CCAGUAA,-0.629
21,UUACCCA,-0.73
22,CAGUUUU,-0.87
23,AAUUUCC,-0.74

row,Sequence,RNAcompete 7-mer binding Z-score
1,UGGGUCG,2.09
2,AGUGGAU,2.35
3,ACAAUCC,-0.74
4,CCCAUGA,-0.584
5,GUCGAAG,0.732
6,AGAAGGU,3.26
7,UUAUCAA,-0.707
8,AGAAUCA,-0.334
9,GGGAGGA,3.47
10,UUGCCAA,-0.737
11,CUACUAA,-0.665
12,CAUGGAC,0.309
13,GUCAAGC,-0.116
14,AGAACUA,-0.561
15,CUAUGUG,-0.279
16,GGAGUAG,2.93
17,GUGUAAU,0.111
18,CCUGUUG,-0.701
19,GAUUGCG,0.218
20,UUUCAAC,-0.792
21,UCCGAUC,-0.746
22,UGUGCUC,-0.409
23,AGUUUAU,-0.535

row,Sequence,RNAcompete 7-mer binding Z-score
1,GAGCCUC,-0.789
2,UCAUAUG,-0.363
3,AUACCCC,-0.613
4,GUCACGU,-0.295
5,CGGGCGA,1.29
6,UGCGAUU,-0.578
7,CGAUAAA,-0.409
8,GUGAUGC,0.836
9,UGGGGGU,3.87
10,GAUCACA,-0.305
11,UCUCUUA,-0.795
12,CAUUACC,-0.756
13,UCAGUGC,-0.292
14,GUAUCAA,-0.126
15,GGACUUA,0.102
16,GCACAGU,-0.262
17,GUGUCCG,-0.253
18,CUACGUG,-0.366
19,UUAGGCA,0.28
20,UUGACCU,-0.802
21,UACAAAG,-0.217
22,AAACAGC,-0.542
23,UUAUUUA,-0.584
